# Measured values as given in PubChem BioAssay AID1508624 (National Center for Advancing Translational Sciences (NCATS), 2021).
# Out of some 48,000 compounds screened, about 120 (0.25%) were called active. Not shown: some 4% with an inconclusive outcome. The call rests on the fitted dose curve; in most records, active means well fitted activation curve with a large enough effect; inconclusive means small, poorly fitted or top-dose-only effect, or another doubt; inactive means no such curve, though single readings can be large or run the other way. The entries are a selection whose mix differs from that of the whole data set. The source gives no active or inactive call for entries shown without one.
# Assay: Primary qHTS for Identification of Small Molecule Activators of Huntingtin-Antisense Promoter Activity; further: nearly all actives have a fitted effect of over 55% in size
# Conditions: HEK293 HTT-AS promoter firefly luciferase reporter, 24 h; activity change, positive = activation: at 57.5 µM (top of the series), percent change from vehicle, -100% = no light
# Procedure, shortened: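 HEK293 luciferase promoter-reporter cells (2,500/well) plated 24 h, then compounds added at up to 57.5 uM final for 24 h at 37 °C. Firefly luminescence by Dual-Glo, normalized to vehicle (0%) and zero RLU (-100%).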
# Potency means the concentration at half of the fitted maximal effect.
SMILES,"activity change, positive = activation",Potency
Cc1ccc(C2C(=O)N(C3CCCCCC3)CC(=O)N2CCC2=CCCCC2)cc1 (configuration not stated),-37.9%,–
CCOc1ccc(C(=O)Nc2ccc(Cl)c(-c3nc4cc(C)cc(C)c4o3)c2)cc1,-6.49%,–
Cc1ccc(-n2nc(C)c(C(=O)NCCCN3CCN(c4ccccc4F)CC3)c2-n2cccc2)cc1,-40.1%,–
COC(=O)c1c(NC(=O)CCCOc2ccccc2C)sc2c1CCC2,-1.44%,–
CCOc1ccccc1NC(=O)C1CCN(S(=O)(=O)Cc2ccccc2)CC1,-5.63%,–
Cc1ccc(NC(=O)c2ccc3c(=O)n4nc(Nc5ccccc5C)sc4nc3c2)cc1C,inactive: -4.68%,–
Cc1ccc(NC(c2cccc(Cl)c2)c2nnc(-c3ccccc3)o2)cc1F (configuration not stated),-19.3%,–
COc1ccc(CNC(=O)CCS(=O)(=O)c2ccc3c(c2)CC(C)N3C(=O)C2CC2)cc1 (configuration not stated),-15.1%,–
COc1ccc(N(C(=O)c2cc(OC)c(OC)c(OC)c2)S(=O)(=O)c2ccc(C)cc2)cc1,inactive: 0%,–
COc1ccccc1N1CCN(C(=O)c2oc3ccccc3c2N)CC1,-19.5%,–
CC(=O)Nc1nonc1-c1nnc(SCc2cccc(Br)c2)n1C,inactive: -13.3%,–
CCOc1ccc(NC(=O)CC2C(=O)N(c3cccc(C)c3)C(=O)N2Cc2cccnc2)cc1 (configuration not stated),0.609%,–
COc1ccc(N2CCN(C(=O)c3oc4ccccc4c3NC(=O)c3ccccc3OC)CC2)cc1,inactive: -12.6%,–
Cc1cccc(N2CCN(C3(c4ccccc4)C(=O)c4ccccc4C3=O)CC2C)c1 (configuration not stated),-6.08%,–
COc1ccc2c(C)c(CCC(=O)NCCc3ccc(Cl)cc3)c(=O)oc2c1,-25.6%,–
CC(C)C(=O)Nc1ccc2nc(SCCOc3ccccc3)sc2c1,inactive: -9.15%,–
CCOC(=O)c1c(NC(=O)c2cc(-c3ccc(OC)cc3)on2)sc(C)c1C,-0.815%,–
CNC(=O)COc1ccc(Nc2nnc(-c3ccc(C)c(S(=O)(=O)NC(C)(C)C)c3)c3ccccc23)cc1,-34.2%,–
CC(=O)c1ccc(NC(=O)c2cc(-c3ccc(Cl)c(Cl)c3)on2)cc1,11.6%,–
COc1ccccc1-c1cc(C(=O)Nc2cc(Cl)ccc2O)no1,13.4%,–
CCOc1ccc(CNC(=O)c2cnc3sc(N4CCC(C)CC4)nn3c2=O)cc1OC,-6.2%,–
O=S(=O)(Nc1cccc(-c2ccc(N3CCCCC3)nn2)c1)c1ccc(Cl)s1,63.4%,–
COC(=O)Nc1ccc(-c2nc(N3CCOCC3)c3cnn(C4CCN(C(=O)OC)CC4)c3n2)cc1,inactive: -44%,–
COc1ccc2c(c1)CC[C@@H](CN(C)CC(=O)O)[C@H]2c1ccccc1,inactive: -40.2%,–

SMILES,"activity change, positive = activation",Potency
O=C(CC(c1ccccc1)c1cc(Br)ccc1O)NCC1(c2ccccc2)CCCC1 (configuration not stated),-57%,–
COc1ccc(CCn2c3c(c(=O)[nH]c2=O)C(NC(=O)c2ccccc2)(C(F)(F)F)C(=O)N3)cc1OC (configuration not stated),inactive: -7.79%,–
COc1ccc(C2C(=O)N(C3CCC(C)CC3)CC(=O)N2Cc2ccc(C)cc2)cc1OC (configuration not stated),-15.8%,–
Cc1ccc(N2CC(NC(=O)Cc3cccs3)CC2=O)cc1 (configuration not stated),inactive: -7.5%,–
Cc1cc(-c2ccc(S(=O)(=O)Nc3ccccc3C)cc2)on1,-30.2%,–
COc1ccc(CNC(=O)C2CCCCN2S(=O)(=O)c2ccc(F)cc2)cc1 (configuration not stated),-23.8%,–
CCc1ccc(NC(=O)CC2C(=O)N(c3cccc(C)c3)C(=O)N2Cc2cccc(OC)c2)cc1 (configuration not stated),-31.9%,–
CCc1nn(CC(=O)NCc2ccco2)c(=O)c2cc3cc(F)ccc3n12,-5.35%,–
Cc1cccc(-n2nnc(-c3nc(-c4cccs4)no3)c2N)c1C,–,active: 0.355 µM
COc1ccccc1Nc1ncc2c(n1)CCN(CC(C)C)C2,–,active: 12.6 µM
COc1ccc(-c2nc(SCC(=O)NCc3nc4ccccc4n3C)n3[nH]c(=O)cc3n2)cc1,1.97%,–
Cc1ccc(OCCSc2nc(-c3cccs3)nc3cc(=O)[nH]n23)cc1Cl,-9.02%,–
COc1ccccc1CCNC(=O)Cc1c(C)c2c(O)cc(C)cc2oc1=O,-2.54%,–
CC(=O)c1[nH]c(C)c(C(=O)NCc2ccc(Cl)cc2)c1C,inactive: -49.8%,–
COc1cc(C)c(S(=O)(=O)Nc2cccc(-c3ccc(N4CCCC4)nn3)c2)cc1C,-8.32%,–
CCc1cc(=O)oc2cc(C)c3c(-c4ccc(F)cc4)coc3c12,-6.76%,–
COC(=O)c1c(NC(=O)C2c3ccccc3Oc3ccccc32)sc2c1CCC(C)C2 (configuration not stated),-11.2%,–
Cc1nc2scc(C)n2c(=O)c1S(=O)(=O)Nc1ccc(N2CCN(C(=O)C(C)C)CC2)cc1,-38.2%,–
CCc1ccccc1NC(=O)c1cc(-c2ccc3c(c2)OCO3)on1,66.6%,–
O=C(NCCCc1nc2ccccc2n1Cc1ccc(Cl)cc1Cl)c1ccco1,-17.3%,–
CC(=O)c1ccc(NC(=O)c2noc3c2CCc2ccccc2-3)cc1,49.4%,–
CC(C)CS(=O)(=O)c1oc(-c2ccc(F)cc2)nc1S(=O)(=O)c1ccccc1,inactive: -94.4%,–
CCOc1ccccc1CNC(=O)Cn1c(-c2ccccc2)cc(C(C)=O)c1C,-0.751%,–
